The list shows a part of the results. Sequences were assembled here from the parent chain. Values near 0.05 are background.
B1: TEV protease; numbered along this chain (parent)
chain: MGESLFKGPRDYNPISSSICHLTNESDGHTTSLYGIGFGPFIITNKHLFRRNNGTLVVQSLHGVFKVKDTTTLQQHLVDGRDMIIIRMPKDFPPFPQKLKFREPQREERICLVTTNFQTKSMSSMVSDTSCTFPSGDGIFWKHWIQTKDGQCGSPLVSTRDGFIVGIHSASNFTNTNNYFTSVPKNFMELLTNQEAQQWVSGWRLNADSVLWGGHKVFMVKPEEPFQPVKEATQL

Variants of: B1
Assay: raw area under fraction-flipped curve 0-4 h after induction (AUC4h, not background-subtracted), DNA-recorder readout of cleavage of the substrate (dimensionless); higher = more cleavage of the substrate by the protease variant
Conditions: temperature: 34 °C; time window: 0-4 h after rhamnose induction
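Also: Bxb1 expression induced with 0.2% (w/v) L-rhamnose at OD600 near 0.5, cultures sampled hourly, flipped fraction per protease–substrate barcode pair counted by paired-end Illumina sequencing.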

Variant | area with substrate EDLYFQS | area with substrate EELYFQS | area with substrate EKLYFQS | area with substrate ELLYFQS | area with substrate EMLYFQS | area with substrate EQLYFQS | area with substrate ERLYFQS | area with substrate EILYFQS | area with substrate ESLYFQS | area with substrate ETLYFQS
L205P | 0.0818 | 0.0666 | 0.0541 | 0.0593 | 0.0647 | 0.0661 | 0.0719 |  |  | 
V217M | 0.112 | 0.0911 | 0.0753 | 0.0767 | 0.0714 | 0.0856 | 0.0889 | 0.0786 | 0.0531 | 0.0864
A232I | 0.116 | 0.153 |  | 0.0953 |  | 0.0982 | 0.114 |  | 0.101 | 
T233I | 0.112 |  |  |  |  |  | 0.106 |  | 0.113 | 
S26I |  | 0.082 | 0.0913 |  | 0.0825 | 0.0618 | 0.0758 | 0.04 |  | 0.0658
Y34P |  | 0.0536 | 0.0501 | 0.0737 |  | 0.0485 |  |  | 0.049 | 0.0666
G35H |  | 0.0566 |  |  | 0.0507 | 0.0423 |  |  | 0.0544 | 0.0474
R51D |  | 0.0965 |  |  |  |  | 0.125 | 0.0903 | 0.127 | 
T55P |  | 0.101 |  | 0.0828 | 0.104 | 0.0921 | 0.0857 | 0.0859 | 0.0814 | 
V57F |  | 0.124 | 0.107 |  |  |  | 0.0921 |  | 0.102 | 
Q59E |  | 0.114 | 0.0974 |  | 0.0845 | 0.116 |  | 0.0972 | 0.13 | 0.138
V78H |  | 0.0849 |  |  |  | 0.0518 |  |  | 0.0734 | 0.0695
I85Q |  | 0.0524 | 0.0607 |  | 0.0452 | 0.0503 | 0.0534 | 0.0648 | 0.0567 | 
P89I |  | 0.0983 |  |  |  |  | 0.0619 | 0.0654 | 0.0789 | 
F117T |  | 0.0943 |  | 0.0884 |  |  |  |  |  | 
F117Y |  | 0.147 | 0.129 | 0.0673 | 0.149 | 0.123 | 0.0973 |  |  | 
T129A |  | 0.132 | 0.0801 | 0.0891 | 0.0887 | 0.116 | 0.0985 | 0.0952 |  | 0.0886
S130F |  | 0.102 |  | 0.0583 |  | 0.0785 |  | 0.061 | 0.0808 | 
G138E |  | 0.0695 | 0.104 |  |  | 0.113 |  |  |  | 
F163G |  | 0.138 | 0.141 |  |  |  |  |  |  | 
F180Y |  | 0.145 |  | 0.0823 | 0.0555 |  |  | 0.0744 | 0.128 | 0.127
S182D |  | 0.0726 |  | 0.06 | 0.0855 |  |  |  |  | 

Variant | area with substrate EDLYFQS | area with substrate EELYFQS | area with substrate EKLYFQS | area with substrate ELLYFQS | area with substrate EMLYFQS | area with substrate EQLYFQS | area with substrate ERLYFQS | area with substrate EILYFQS | area with substrate ESLYFQS | area with substrate ETLYFQS
E195Q |  | 0.113 |  | 0.0715 |  | 0.118 |  |  | 0.107 | 0.104
L205Q |  | 0.0871 | 0.0561 |  |  | 0.0939 |  | 0.105 |  | 
S209T |  | 0.124 | 0.121 |  |  |  | 0.138 |  | 0.116 | 0.132
V210A |  | 0.0959 | 0.107 |  |  |  |  |  |  | 
G214L |  | 0.0963 | 0.138 | 0.0755 |  | 0.0705 | 0.0628 | 0.0663 | 0.0695 | 
H215Y |  | 0.122 | 0.0859 |  |  | 0.161 |  | 0.0744 | 0.0768 | 0.0847
P228T |  | 0.103 |  |  |  |  |  | 0.0828 |  | 0.113
E231D |  | 0.116 | 0.0959 | 0.103 | 0.111 |  |  |  | 0.127 | 0.161
A232D |  | 0.191 | 0.108 |  |  |  | 0.121 | 0.1 | 0.12 | 
F6E |  |  |  | 0.1 |  |  | 0.0836 |  | 0.104 | 
Q74L |  |  | 0.114 |  |  |  | 0.0724 |  | 0.0963 | 0.124
E103N |  |  |  |  |  | 0.124 |  | 0.108 |  | 
S130T |  |  |  |  | 0.111 | 0.145 |  | 0.103 | 0.109 | 
S154E |  |  |  | 0.061 | 0.0906 | 0.0784 | 0.0781 |  | 0.0744 | 
F163C |  |  | 0.141 |  |  | 0.121 |  |  |  | 
N177R |  |  |  |  | 0.142 |  | 0.131 | 0.102 | 0.119 | 
K90E |  |  |  |  |  | 0.122 | 0.113 |  |  | 
R102S |  |  | 0.0754 | 0.0511 |  | 0.0576 | 0.0584 |  | 0.0576 | 0.109
H143Y |  |  | 0.145 | 0.127 | 0.118 | 0.114 | 0.118 | 0.115 | 0.14 | 
L235R |  |  |  |  |  |  |  | 0.092 | 0.12 | 
Y12T |  |  |  |  | 0.118 | 0.139 | 0.12 | 0.121 | 0.0985 | 

Same assay, conditions: temperature: 34 °C; time window: 0-4 h after rhamnose induction

Variant | area with substrate EVLYFQS | area with substrate EYLYFQS | area with substrate EFLYFQS | area with substrate EGLYFQS | area with substrate EHLYFQS | area with substrate EPLYFQS | area with substrate EWLYFQS
V217M | 0.0931 | 0.065 |  |  |  |  | 
A232I |  |  | 0.115 |  |  |  | 
T233I | 0.0906 |  |  | 0.0884 | 0.112 | 0.0903 | 0.0912
S26I | 0.0653 | 0.0446 |  | 0.0903 | 0.0582 |  | 0.0737
Y34P | 0.0505 |  | 0.0487 | 0.0393 |  |  | 
G35H |  |  |  | 0.0579 |  |  | 0.0446
R51D |  | 0.0808 |  | 0.111 | 0.104 | 0.128 | 0.0976
T55P | 0.0793 |  |  |  | 0.0775 | 0.0873 | 0.0853
V57F | 0.0613 |  |  | 0.0959 |  | 0.135 | 0.0862
Q59E | 0.0541 | 0.0689 | 0.0799 |  |  | 0.104 | 0.0995
V78H | 0.0593 |  |  |  | 0.0113 | 0.0388 | 0.0823
I85Q | 0.0604 | 0.0407 |  | 0.0556 | 0.0484 |  | 
P89I | 0.0455 |  |  | 0.0867 |  | 0.0631 | 
F117T |  |  |  | 0.118 |  | 0.0838 | 
F117Y | 0.0857 |  | 0.111 |  |  |  | 
T129A |  |  | 0.0999 |  |  |  | 0.0801
S130F | 0.0873 |  | 0.0978 |  | 0.0944 |  | 
F163G |  |  | 0.107 |  |  |  | 0.08
F180Y | 0.0913 |  |  | 0.0796 |  | 0.0857 | 0.115
S182D | 0.0468 |  | 0.0776 | 0.0682 |  |  | 
E195Q |  |  | 0.131 |  | 0.111 |  | 

Variant | area with substrate EVLYFQS | area with substrate EYLYFQS | area with substrate EFLYFQS | area with substrate EGLYFQS | area with substrate EHLYFQS | area with substrate EPLYFQS | area with substrate EWLYFQS
L205Q | 0.0573 |  |  |  |  |  | 
S209T |  |  | 0.0972 |  |  |  | 
V210A | 0.0841 |  |  |  |  |  | 
G214L |  |  |  | 0.0473 |  |  | 
H215Y | 0.073 | 0.104 |  |  | 0.0887 |  | 
P228T | 0.106 |  |  | 0.089 |  | 0.11 | 
E231D |  |  |  | 0.0911 | 0.113 |  | 
A232D | 0.0884 |  |  |  |  |  | 0.115
F6E | 0.0798 |  | 0.0927 |  |  |  | 
Q74L |  | 0.107 | 0.112 |  |  |  | 
E103N | 0.113 |  | 0.119 |  | 0.0673 |  | 0.0762
S130T | 0.118 |  | 0.151 |  |  |  | 
S154E | 0.0655 |  | 0.112 |  |  | 0.0812 | 0.0468
F163C | 0.0946 |  | 0.0952 | 0.0974 |  |  | 
N177R | 0.112 | 0.105 | 0.137 | 0.142 |  | 0.165 | 
K90E | 0.0789 | 0.109 |  | 0.154 |  |  | 0.115
R102S | 0.0668 |  |  | 0.069 | 0.0479 | 0.0573 | 0.0667
H143Y | 0.0799 | 0.133 |  | 0.116 |  |  | 
L235R |  |  |  | 0.106 |  |  | 
Y12T | 0.112 |  |  |  | 0.0839 | 0.104 | 0.109

Reference: the supplement of paper PMC12217912
